The campaign covered roughly 230,000 compounds. About 3,600 (1.6%) were called active. Inconclusive means that the source gave no clear call. Such entries were picked first, then a sample of the others. The call rests on the fitted dose curve; in most records, active means well fitted inhibition curve with a large enough effect (not every such curve was filed as active); inconclusive means small, poorly fitted or top-dose-only effect, or another doubt; inactive means no such curve, though single readings can be large or run the other way. Potencies beside an inconclusive call are fits to weak or partial responses and may not hold up.
Target: Lysine-specific demethylase 4E (Homo sapiens) (UniProt B2RXH2)
Experiment: qHTS Assay for Inhibitors of Human Jumonji Domain Containing 2E (JMJD2E)
Settings: JMJD2E catalytic domain, FDH-coupled NADH fluorescence (FDH is formaldehyde dehydrogenase); series mostly up to 57.1 µM; activity change, negative = inhibition: at the top concentration
Further: nearly all actives have a fitted effect of over 50% in size.
Potency means the concentration at half of the fitted maximal effect; tags describe the fitted curve by direction and shape.
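Wherever activity change, negative = inhibition is given: 0% = wells with enzyme and -100% = buffer wells without enzyme.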

Sequence of UniProt B2RXH2 (B2RXH2 whole entry, looked up, the tested form may be a part): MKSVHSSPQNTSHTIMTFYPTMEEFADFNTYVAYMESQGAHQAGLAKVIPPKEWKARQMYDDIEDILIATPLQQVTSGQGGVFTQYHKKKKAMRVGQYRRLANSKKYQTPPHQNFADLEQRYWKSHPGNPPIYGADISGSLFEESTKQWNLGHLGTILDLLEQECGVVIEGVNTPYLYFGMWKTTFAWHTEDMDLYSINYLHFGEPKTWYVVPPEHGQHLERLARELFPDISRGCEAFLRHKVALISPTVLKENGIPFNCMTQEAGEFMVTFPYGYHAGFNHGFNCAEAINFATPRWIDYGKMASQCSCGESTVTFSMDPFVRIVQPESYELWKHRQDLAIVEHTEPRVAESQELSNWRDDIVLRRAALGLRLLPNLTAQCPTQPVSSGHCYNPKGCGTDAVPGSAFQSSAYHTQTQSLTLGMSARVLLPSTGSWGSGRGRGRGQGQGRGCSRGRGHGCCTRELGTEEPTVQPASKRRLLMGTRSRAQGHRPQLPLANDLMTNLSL

SMILES	Potency	activity change, negative = inhibition
O=C(NN=C1CCCC1)c1[nH]c2ccc(Cl)cc2c1-c1ccccc1	inconclusive: 25.1 µM [inhibitor, single point]	–
O=C(CSc1cn(CC(=O)N2CCCCC2)c2ccccc12)NCC1CCCO1 (stereo not given)	–	inactive: 3.56%
C=CCN1C(=O)C2(/C(=C(\O)c3ccc4c(c3)OCCO4)C(=O)C(=O)N2CCCOC)c2ccccc21 (stereo not given)	–	inactive: -17%
CCOc1cc(C2/C(=C(/O)c3ccc(OC(C)C)cc3)C(=O)C(=O)N2CCCOC)ccc1O (stereo not given)	inconclusive: 39.8 µM [inhibitor, single point]	–
CCC(C(=O)NCc1ccco1)N(C(=O)CNS(=O)(=O)c1ccccc1)c1ccccc1C (stereo not given)	–	inactive: 20.4%
Cc1cccc(-n2c(O)c(/C=N/NC(=O)c3ccccc3Cl)c3ccccc3c2=O)n1	inconclusive: 22.4 µM [inhibitor, partial curve]	–
O=c1cc(CO)oc(CN2CCN(c3ccccc3F)CC2)c1O	inconclusive: 25.1 µM [inhibitor, single point]	–
O=C(O)CSc1ccc(Oc2ccc(SCC(=O)O)cc2)cc1	–	inactive: -4.44%
O=C(CCCCCn1c(=S)[nH]c2ccc(N3CCOCC3)cc2c1=O)NCCc1ccccc1	inconclusive: 25.1 µM [inhibitor, single point]	–
NNc1ncnc2c1cnn2-c1ccccc1	inconclusive: 31.6 µM [inhibitor, single point]	–
CC(C)(C)OC(=O)N1CCCC1C(=O)N1CCCC1C(=O)N1CCCC1C(=O)O (stereo not given)	–	inactive: 4.49%
CCC(c1nnnn1C(C)(C)CC)N(CCCO)Cc1cc2cccc(C)c2[nH]c1=O (stereo not given)	inconclusive: 31.6 µM [inhibitor, single point]	–
O=C(NC1=NCCS1)c1cc(-c2cccs2)nc2ccccc12	inconclusive: 31.6 µM [inhibitor, partial curve]	–
COc1ccc2nc(N)sc2c1	–	inactive: 6.61%
O=C(NC(Cc1c[nH]c2ccccc12)C(=O)N/N=C/c1cccc2ccccc12)c1cccs1 (stereo not given)	inconclusive: 39.8 µM [inhibitor, single point]	–
COc1ccc(Br)cc1C(=O)N/N=C/c1ccc2c(c1)n(C)c(=O)n2C	inconclusive: 35.5 µM [inhibitor, single point]	–
O=C(c1cn(-c2ccccc2)nc1-c1cc2ccccc2oc1=O)N1CCOCC1	inconclusive: 31.6 µM [inhibitor, partial curve]	–
O=C1c2ccccc2C(=O)N1CC1=CCS(=O)(=O)C1	inconclusive: 39.8 µM [inhibitor, single point]	–
O=c1c2c3c(sc2nc2n1CCCS2)CCCC3	inconclusive: 35.5 µM [inhibitor, single point]	–
CCOC(=O)c1cc(-c2csc(N/N=C/c3ccccc3Cl)n2)on1	inconclusive: 12.6 µM [inhibitor, partial curve]	–
COc1cccc(CNC(=O)CCNC(=O)Cn2ccc3ccccc3c2=O)c1	inconclusive: 39.8 µM [inhibitor, single point]	–
COC(=O)c1scc2c(=O)cc(C(F)(F)F)[nH]c12	inconclusive: 14.1 µM [inhibitor, partial curve]	–
O=C(N/C(=C/C=C\c1ccccc1)C(=O)N1CCOCC1)c1ccc(Br)cc1	inconclusive: 39.8 µM [inhibitor, single point]	–
Oc1ccccc1C1=Nc2ncnn2C(c2ccc(F)cc2)C1 (stereo not given)	inconclusive: 35.5 µM [inhibitor, single point]	–

SMILES	Potency	activity change, negative = inhibition
O=c1c2[nH]c3ccc(F)cc3c2nc2n1CCCS2	inconclusive: 35.5 µM [inhibitor, single point]	–
Cn1cc(C=O)c2ccccc21	–	inactive: -3.36%
S=C(Nc1ccc2[nH]ccc2c1)NC1CCCCC1	–	inactive: -5.79%
CCOc1ccc(-c2nc(CN(Cc3ccccc3)C[C@@H]3CCC(=O)N3)c(C)o2)cc1	–	inactive: -13.8%
CCOC(=O)c1ccc(N2CCCCC2)c(NS(=O)(=O)c2cccc(C(F)(F)F)c2)c1	–	inactive: -11.2%
CCN1C(=O)C2(C(C#N)=C(N)Oc3c2c(C)nn3-c2ccccc2)c2ccccc21 (stereo not given)	–	inactive: -14.7%
O=C(Nc1nc2c(s1)CN(Cc1ccccc1)CC2)c1cccc(S(=O)(=O)N2CCc3ccccc32)c1	inconclusive: 28.2 µM [inhibitor, single point]	–
CCc1nc2sc(C(C)=O)c(N)c2c2c1CCCC2	inconclusive: 25.1 µM [inhibitor, partial curve]	–
CC(C)c1ccc2oc(-c3ccc(N)cc3)nc2c1	inconclusive: 28.2 µM [inhibitor, partial curve]	–
O=C(CSc1ccc2nnc(-c3ccc(Cl)cc3)n2n1)N1CCc2ccccc21	–	inactive: 2.51%
Cc1sc(=NC(=O)c2ccco2)n(C)c1-c1ccc(Cl)cc1	inconclusive: 31.6 µM [inhibitor, single point]	–
CCN(Cc1ccccc1)C(c1cc2cc(C)cc(C)c2[nH]c1=O)c1nnnn1CCOC (stereo not given)	inconclusive: 39.8 µM [inhibitor, single point]	–
Cc1ccc(N=C2NC(=O)/C(=C/C=C/c3ccco3)S2)cc1C	inconclusive: 28.2 µM [inhibitor, single point]	–
O=C(O)CN1C(=O)/C(=C/c2ccc(N3CCCCC3)o2)SC1=S	active: 31.6 µM	–
Cc1cc(/C=C2/NC(=O)N(c3ccccc3)C2=O)c(C)n1-c1cccnc1	active: 20 µM	–
CCc1cc2c(=O)n(Cc3ccco3)c(SCC(=O)NC3CCS(=O)(=O)C3)nc2s1 (stereo not given)	–	inactive: -5.54%
COC(=O)c1ccc(C2Nc3ccc(/C(C)=N/NC(=O)C(OC)c4ccccc4)cc3C3C=CCC32)cc1 (stereo not given)	inconclusive: 39.8 µM [inhibitor, single point]	–
CC(=O)N1[C@H](C)C=C[C@]1(Cc1ccccc1)C(=O)NCCc1c[nH]c2ccccc12	inconclusive: 31.6 µM [inhibitor, single point]	–
CCCCOC(=O)c1ccc(NC(=O)/C=C/c2cccs2)cc1	inconclusive: 28.2 µM [inhibitor, partial curve]	–
O=C(CNC(=O)c1ccc(-c2ccccc2)cc1)Nc1ccc(S(=O)(=O)Nc2ncccn2)cc1	inconclusive: 31.6 µM [inhibitor, single point]	–
CCN(CC)CCN(C)C(=O)CCc1nnc(-c2ccc(C)s2)o1	–	inactive: -0.0224%
Cc1cc(-c2ccccc2)nc(N2CCC(C(=O)NC(C)C)CC2)n1	–	inactive: 31.5%
CCOC(=O)C1=C(C)NC(C)=C(C(=O)OCC)C1C(=O)OCC(=O)N(C)C1CCS(=O)(=O)C1 (stereo not given)	inconclusive: 28.2 µM [inhibitor, single point]	–
CC(=O)Nc1ccc2c(COC(=O)[C@H](C)N3C(=O)C4CCCCC4C3=O)cc(=O)oc2c1 (stereo not given in full)	inconclusive: 14.1 µM [inhibitor, partial curve]	–

SMILES	Potency	activity change, negative = inhibition
Cc1cc(C)c2c(-n3cccc3)c(C(=O)NNS(=O)(=O)c3ccc(Cl)cc3)sc2n1	–	inactive: -4.23%
CCOC(=O)C1CCCN(C(=O)c2ccco2)C1 (stereo not given)	–	inactive: 4.85%
CCOC(=O)/C=C(C)\C=C\c1c[nH]c2ccccc12	inconclusive: 39.8 µM [inhibitor, single point]	–
CCCn1c(C)nc2c(c1=O)c1nc3ccccc3nc1n2CCC1=CCCCC1	inconclusive: 17.8 µM [inhibitor, partial curve]	–
Cc1cccc(-c2nnc(NC(=O)c3cccs3)s2)c1	inconclusive: 3.98 µM [inhibitor, full curve]	–
O=C1c2ccc3c4c(ccc(c24)C(=O)N1c1cccc(O)c1)CC3	inconclusive: 20 µM [inhibitor, partial curve]	–
O=C(CNc1ccc2c(c1)OCO2)N/N=C\c1ccccc1Cl	inconclusive: 4.47 µM [inhibitor, partial curve]	–
CCSc1nnc(NC(=O)CSc2nc(C)cc(C)n2)s1	–	inactive: 8.36%
Cc1cc(C(=O)O)ccc1N/C=C1\CCCC(C)C1=O (stereo not given)	–	inactive: -4.57%
CCCCc1[nH]c(=O)c(C#N)c2c1CSC(C)(C)C2	inconclusive: 25.1 µM [inhibitor, partial curve]	–
CC1=CC2=NC(=O)/C(=C\c3cc(C)n(-c4cccc(Cl)c4)c3C)C(=N)N2O1	active: 28.2 µM	–
Cc1ccccc1N=C/C=C1\N(C)c2ccccc2C1(C)C	inconclusive: 25.1 µM [inhibitor, single point]	–
COc1ccc(-c2nc(C#N)c(N3CCC(C(N)=O)CC3)o2)cc1OC	inconclusive: 28.2 µM [inhibitor, partial curve]	–
CCCOc1ccc(-c2csc3ncn(Cc4ccc(C(=O)O)cc4)c(=O)c23)cc1	inconclusive: 12.6 µM [inhibitor, partial curve]	–
C(=N\Nc1ccc2nncn2n1)/c1ccccn1	inconclusive: 31.6 µM [inhibitor, single point]	–
O=C(Cc1nc2ccccc2[nH]c1=O)c1ccccc1	–	inactive: -8.33%
Cc1ccc2cc(C#N)c(NCCCNC(=O)C3CCCO3)nc2c1 (stereo not given)	inconclusive: 31.6 µM [inhibitor, partial curve]	–
NS(=O)(=O)c1cc2c(cc1C(F)(F)F)NC(Cc1ccccc1)NS2(=O)=O (stereo not given)	inconclusive: 31.6 µM [inhibitor, partial curve]	–
CCN(CC)CCCN(Cc1cc2cc3c(cc2[nH]c1=O)OCO3)C(=S)NCc1ccco1	inconclusive: 22.4 µM [inhibitor, partial curve]	–
CCOC(=O)Cn1c2c(c(=N)c3ccccc31)CCC2	inconclusive: 39.8 µM [inhibitor, single point]	–
CC1CCc2sc(C(=O)Nc3nnc(SCc4ccc(F)cc4)s3)cc2C1 (stereo not given)	inconclusive: 35.5 µM [inhibitor, partial curve]	–
Cc1ccc(NNC(=O)C(O)(c2cccc(C(F)(F)F)c2)c2cccc(C(F)(F)F)c2)cc1	–	inactive: 4.64%
